{"source": "PubChem BioAssay (NCATS)", "note": "This list was built around the results that the source calls inconclusive (neither active nor inactive); the mix of calls is not that of the screen. No potency is given beside an inconclusive call; the fits are too rough. Calls of active or inactive are those of the source. The call rests on the fitted dose curve; in most records, active means well fitted cell-killing curve with a large enough effect; inconclusive means small, poorly fitted or top-dose-only effect, or effect the other way; inactive means no such curve, though single readings can be large or run the other way. On the % scale 0 is the no-effect control and ±100 the full control effect; potency means the concentration at half of the fitted maximal effect; tags describe the fitted curve by direction and shape.", "data": [{"test": "qHTS assay to identify small molecule inhibitors of chordoma cells - UCH-1 (AID 1259355); further: nearly all actives have a fitted effect of over 55% in size", "conditions": "UCH-1 chordoma viability, CellTiter-Glo, 48 h, combination, with auranofin plus four topoisomerase inhibitors; series mostly up to 46.1 µM; activity, negative = inhibition: at the top concentration", "summary_of_the_method": "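800 cells/well, overnight attach; compounds pinned at 15 concs, then auranofin/camptothecin/doxorubicin/rubitecan/topotecan combo added; 48hr 37 C, 5% CO2; CellTiter-Glo, 30min RT, luminescence.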", "values": [{"smiles": "NC[C@H]1O[C@H](O[C@H]2[C@H](O[C@@H]3O[C@H](CO)[C@@H](O)[C@H]3O)C(O)[C@H](N)C[C@@H]2N)[C@H](N)[C@@H](O)[C@@H]1O", "note": "(stereo partly drawn)", "Potency": "inconclusive [rising, full curve, poor fit]"}, {"smiles": "C[C@@H]1C[C@H]2[C@@H]3C[C@H](F)C4=CC(=O)C(Cl)=C[C@]4(C)[C@@]3(F)[C@@H](O)C[C@]2(C)[C@@]1(O)C(=O)CO", "Potency": "inconclusive [cytotoxic, full curve]"}, {"smiles": "COC(=O)c1ccc(O)cc1", "activity, negative = inhibition": "inactive: 12%"}, {"smiles": "C[C@]12C=CC(=O)C=C1CC[C@H]1[C@@H]3C[C@@H](O)[C@](O)(C(=O)CO)[C@@]3(C)C[C@H](O)[C@@]12F", "Potency": "inconclusive [cytotoxic, full curve, poor fit]"}, {"smiles": "CCN1CCC[C@H]1CNC(=O)c1c(OC)ccc(Br)c1OC", "activity, negative = inhibition": "inactive: -6.83%"}, {"smiles": "Cc1cc(N)c2cc(NC(=O)Nc3ccc4nc(C)cc(N)c4c3)ccc2n1", "activity, negative = inhibition": "inactive: -16.4%"}, {"smiles": "COc1cc([C@@H]2c3cc4c(cc3[C@@H](O[C@@H]3O[C@@H]5CO[C@@H](C)O[C@H]5[C@H](O)[C@H]3O)[C@H]3COC(=O)[C@H]23)OCO4)cc(OC)c1O", "activity, negative = inhibition": "inactive: -13.6%"}, {"smiles": "CC(=O)Oc1cc(C(C)C)c(OCCN(C)C)cc1C", "Potency": "inconclusive [rising, full curve, poor fit]"}, {"smiles": "NC(=S)NS(=O)(=O)c1ccc(N)cc1", "activity, negative = inhibition": "inactive: 0.42%"}, {"smiles": "C=Cc1c(C)c2cc3nc(cc4[nH]c(cc5nc(cc1[nH]2)C(C)=C5CCC(=O)OC)c(CCC(=O)O)c4C)[C@@]1(C)C3=CC=C(C(=O)OC)[C@H]1C(=O)OC", "activity, negative = inhibition": "inactive: -3.52%"}, {"smiles": "COc1ccc(NS(=O)(=O)c2ccc(N)cc2)nn1", "activity, negative = inhibition": "inactive: -8.54% [at 20.6 µM]"}, {"smiles": "CO[C@H](C(=O)[C@@H](O)[C@@H](C)O)C1Cc2cc3cc(O[C@H]4C[C@@H](O[C@H]5C[C@@H](O)[C@H](O)[C@@H](C)O5)[C@@H](O)[C@@H](C)O4)c(C)c(O)c3c(O)c2C(=O)[C@H]1O[C@H]1C[C@@H](O[C@H]2C[C@@H](O[C@H]3C[C@](C)(O)[C@H](O)[C@@H](C)O3)[C@H](O)[C@@H](C)O2)[C@H](O)[C@@H](C)O1", "note": "(stereo partly drawn)", "Potency": "inconclusive [cytotoxic, full curve]"}, {"smiles": "C[C@]12CCC(=O)C=C1CC[C@@H]1[C@@H]2[C@@H](O)C[C@@]2(C)[C@H]1CC[C@]2(O)C(=O)COP(=O)(O)O", "Potency": "inconclusive [cytotoxic, partial curve, poor fit]"}, {"smiles": "FC(F)OC(Cl)C(F)(F)F", "note": "(stereo not drawn)", "activity, negative = inhibition": "inactive: -4.75%"}, {"smiles": "C[C@H](CCC(=O)O)[C@H]1CC[C@H]2[C@@H]3C(=O)C[C@@H]4CC(=O)CC[C@]4(C)[C@H]3CC(=O)[C@]12C", "Potency": "inconclusive [cytotoxic, full curve, poor fit]"}, {"smiles": "CC(=O)N(CC(C)C(=O)O)c1c(I)cc(I)c(N)c1I", "note": "(stereo not drawn)", "Potency": "inconclusive [rising, full curve, poor fit]"}, {"smiles": "COc1ccc(C2C(=O)c3ccccc3C2=O)cc1", "Potency": "inconclusive [rising, full curve, poor fit]"}, {"smiles": "CO[C@H]1C=CO[C@@]2(C)Oc3c(C)c(O)c4c(O)c(c5c(c4c3C2=O)=NC2(CCN(CC(C)C)CC2)N=5)NC(=O)/C(C)=C\\C=C/[C@H](C)[C@H](O)[C@@H](C)[C@@H](O)[C@@H](C)[C@H](OC(C)=O)[C@@H]1C", "Potency": "inconclusive [cytotoxic, full curve, poor fit]"}, {"smiles": "CC1(C)S[C@@H]2[C@H](NC(=O)Cc3ccccc3)C(=O)N2[C@H]1C(=O)O", "Potency": "inconclusive [cytotoxic, full curve, poor fit]"}, {"smiles": "CN1CCN(C(c2ccccc2)c2ccccc2)CC1", "Potency": "inconclusive [cytotoxic, full curve, poor fit]"}, {"smiles": "CCCCN1C[C@H](O)[C@@H](O)[C@H](O)[C@H]1CO", "activity, negative = inhibition": "inactive: -9.48%"}, {"smiles": "CC1(C)O[C@@H]2C[C@H]3[C@@H]4C[C@H](F)C5=CC(=O)CC[C@]5(C)[C@H]4[C@@H](O)C[C@]3(C)[C@]2(C(=O)CO)O1", "Potency": "inconclusive [cytotoxic, full curve, poor fit]"}, {"smiles": "O=[N+]([O-])c1cccc(S(=O)(=O)NCCNS(=O)(=O)c2cccc([N+](=O)[O-])c2)c1", "activity, negative = inhibition": "inactive: -9.51%"}, {"smiles": "COC(=O)[C@@H]1[C@H]2C[C@H]3c4[nH]c5ccccc5c4CCN3C[C@@H]2CC[C@@H]1O", "activity, negative = inhibition": "inactive: -16.4%"}, {"smiles": "CCN(CC)CCNC(=O)c1ccc(N)cc1", "activity, negative = inhibition": "inactive: 3.74%"}, {"smiles": "CC(Oc1ccccc1)C(=O)N[C@@H]1C(=O)N2[C@@H]1SC(C)(C)[C@@H]2C(=O)O", "note": "(stereo partly drawn)", "Potency": "inconclusive [cytotoxic, full curve, poor fit]"}, {"smiles": "CCCCC(=O)O[C@]1(C(=O)CO)CC[C@H]2[C@@H]3CCC4=CC(=O)CC[C@]4(C)[C@H]3[C@@H](O)C[C@@]21C", "Potency": "inconclusive [cytotoxic, full curve, poor fit]"}, {"smiles": "COC(=O)CCC[N+](C)(C)C", "activity, negative = inhibition": "inactive: -15.1%"}, {"smiles": "CC(=O)OCC(=O)NCCCOc1cccc(CN2CCCCC2)c1", "activity, negative = inhibition": "inactive: -2.36%"}, {"smiles": "CN1C[C@H](C(=O)N[C@]2(C)O[C@@]3(O)C4CCCN4C(=O)[C@H](Cc4ccccc4)N3C2=O)C[C@@H]2c3cccc4[nH]cc(c34)C[C@H]21", "note": "(stereo partly drawn)", "Potency": "inconclusive [cytotoxic, full curve]"}, {"smiles": "C[C@H](CCC(=O)O)[C@H]1CC[C@H]2[C@@H]3CC[C@@H]4C[C@H](O)CC[C@]4(C)[C@H]3C[C@H](O)[C@]12C", "activity, negative = inhibition": "inactive: 7.66%"}, {"smiles": "CCCCC/C=C\\C/C=C\\CCCCCCCC(=O)O", "Potency": "inconclusive [cytotoxic, full curve, poor fit]"}, {"smiles": "CC(O)CO", "note": "(stereo not drawn)", "Potency": "inconclusive [cytotoxic, partial curve, poor fit]"}, {"smiles": "CCCCCCCCCCCCCC[n+]1ccc(C)cc1", "Potency": "inconclusive [cytotoxic, partial curve, poor fit]"}, {"smiles": "CC(O)C(=O)O", "note": "(stereo not drawn)", "Potency": "inconclusive [cytotoxic, full curve, poor fit]"}, {"smiles": "C[C@]12C=CC(=O)C=C1[C@@H](F)C[C@@H]1[C@@H]2[C@@H](O)C[C@@]2(C)[C@H]1CC[C@]2(O)C(=O)CO", "Potency": "inconclusive [cytotoxic, full curve, poor fit]"}, {"smiles": "CC[C@@]1([C@@H]2O[C@@H]([C@H]3O[C@@](O)(CO)[C@H](C)C[C@@H]3C)C[C@@H]2C)CC[C@H]([C@]2(C)CC[C@]3(C[C@H](O)[C@@H](C)[C@@H]([C@@H](C)[C@@H](OC)[C@H](C)C(=O)O)O3)O2)O1", "note": "(stereo in doubt)", "Potency": "active: 1260 nM"}, {"smiles": "COc1ccc(OC)c(C(O)CNC(=O)CN)c1", "note": "(stereo not drawn)", "Potency": "inconclusive [cytotoxic]"}]}]}
